What all share (details): 20 mM HEPES pH 7.9, 100 mM NaCl, 1 mM DTT, 0.2 mg/mL BSA, 0.02% Triton X-100, 2% milk, 0.4 mg/mL salmon testes DNA; 1 h; temperature not stated; high values mean tight binding; double strand, one strand shown; sequences stand for … in GCCTAGCAC…GTGCTAGGTCTTGATTCGCTTGACGCTGCTG
The target of assay [1] is PU.1 (IVT) (UniProt P17947). The assay is described as follows: protein-binding microarray (PBM).
Assay [2] has as its target T1, FLI1 (endogenous, THP-1 nuclear extract) (UniProt Q01543).
T1 sequence: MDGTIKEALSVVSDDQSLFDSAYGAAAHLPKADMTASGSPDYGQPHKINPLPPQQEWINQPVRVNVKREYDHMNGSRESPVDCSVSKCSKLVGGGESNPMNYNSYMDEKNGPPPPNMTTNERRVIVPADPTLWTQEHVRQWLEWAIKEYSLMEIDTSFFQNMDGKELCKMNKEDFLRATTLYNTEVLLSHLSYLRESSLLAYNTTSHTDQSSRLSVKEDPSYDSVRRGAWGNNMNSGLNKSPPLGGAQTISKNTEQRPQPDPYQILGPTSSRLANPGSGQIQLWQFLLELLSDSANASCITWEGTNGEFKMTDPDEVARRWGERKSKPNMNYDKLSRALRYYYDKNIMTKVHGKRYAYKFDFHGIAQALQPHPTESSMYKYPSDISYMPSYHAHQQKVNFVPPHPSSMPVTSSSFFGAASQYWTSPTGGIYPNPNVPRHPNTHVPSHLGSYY
The assay is described as follows: nuclear extract protein-binding microarray (nextPBM).

Assay [3] deals with PU.1 (endogenous, THP-1 nuclear extract) + IRF8 (endogenous, THP-1 nuclear extract). The assay is described as above.

This is an account of results in article PMC6451091.

This is one part of the list. For part of these data: At the low end of the ranking the order means little. For part of these data: The protein was read in a cell extract, so binding may be indirect.

Regarding GAAAAAGGGAACTGAAACTG, the values for the binding signal in assay [1], in assay [2] and in assay [3] were 5.47 z-score, 2.65 z-score and 60.6 z-score, respectively.

Regarding TCAACAAGGAAGTGAAACTT, the binding signal in assay [1] was determined as 3.32 z-score; in assay [2], 3.26 z-score; in assay [3] it was 41.2 z-score.

As for GAAAAGGAGAAGTGAAACTA, the figures for the binding signal in assay [1], in assay [2] and in assay [3] were 5.47 z-score, 4.21 z-score and 73.5 z-score, respectively.

Take TAAAGGAGGAACGGAAACCA: the binding signal stood at 1.15 z-score in assay [1], 3.44 z-score in assay [2] and 3.8 z-score in assay [3].

As for TGTTTGAGGAACTGAAACTG, the figures for the binding signal in assay [1], in assay [2] and in assay [3] were 3.75 z-score, 2.36 z-score and 42.9 z-score, respectively.

With CTGGAAGGGAACTGAAACTC, the values for the binding signal in assay [1], in assay [2] and in assay [3] were 1.45 z-score, 0.797 z-score and 14.1 z-score, respectively.

Turning to GAAAAAAGGAAATGAAAGTA, the binding signal in assay [1] turned out to be 3.16 z-score; in assay [2], 2.49 z-score; in assay [3], 16.1 z-score.

Regarding CTGGCAGGGAAATGAAACTC, the binding signal was 0.13 z-score in assay [1], 1.25 z-score in assay [2] and 12.3 z-score in assay [3].

For TGAAACGGGAAGTGAAACCA, the binding signal in assay [1] came to 6.35 z-score; in assay [2], 4.38 z-score; in assay [3], 65.5 z-score.

As for CTTTTGAGGAACTGAAACTC, the binding signal turned out to be 4.02 z-score in assay [1], 2.34 z-score in assay [2] and 40 z-score in assay [3].

Consider CAAAAGAGGAAGAGAAACTC, for which the figures for the binding signal in assay [1], in assay [2] and in assay [3] were 5.07 z-score, 2.59 z-score and 9.32 z-score, respectively.

Regarding CTGGCAGGGAACTGAAAGTC, the binding signal is 0.723 z-score in assay [1], 0.166 z-score in assay [2] and 3.08 z-score in assay [3].

Regarding AGAGAGAGGAAGTGAAAGTA, the binding signal in assay [1] was found to be 4.81 z-score; in assay [2] it was 3.6 z-score; in assay [3] it was 37.1 z-score.

With TGAAACAGGAAGTGAAAGCA, the binding signal amounted to 6.78 z-score in assay [1], 5.51 z-score in assay [2] and 37.5 z-score in assay [3].

For the sequence TGAAACAGGAAGTGAAAACA, the binding signal in assay [1] amounted to 6.7 z-score; in assay [2], 5.46 z-score; in assay [3] it was 8.93 z-score.

Consider GGAAAGAGGAACAGAAACTG, for which the binding signal in assay [1] is 4.28 z-score; in assay [2], 2.41 z-score; in assay [3], 29.6 z-score.

With TGAGAGGACAAGTGAAACCT, the binding signal in assay [1] is -0.169 z-score; in assay [2] it was -0.0377 z-score; in assay [3], 10.5 z-score.

Take TGAGAGGAGAAGTGAACCCT: the binding signal in assay [1] is 1.03 z-score; in assay [2], 0.173 z-score; in assay [3], -0.365 z-score.

For the sequence AAAAAGAGGAACAGAAACTG, the binding signal worked out at 5.78 z-score in assay [1], 2.68 z-score in assay [2] and 42 z-score in assay [3].

For CTGGCAGGGAACTGAAACTC, the binding signal in assay [1] came out at 0.625 z-score; in assay [2], 0.378 z-score; in assay [3], 11.7 z-score.

As for TTACACAGGAAGTGAAACTA, the binding signal amounted to 2.43 z-score in assay [1], 4.89 z-score in assay [2] and 58.5 z-score in assay [3].

With TAAAGGAGGAACTGAAACGA, the figures for the binding signal in assay [1], in assay [2] and in assay [3] were 3.14 z-score, 1.07 z-score and 0.769 z-score, respectively.

As for GATAAGATGAACTGAAAGCT, the binding signal in assay [1] was -0.635 z-score; in assay [2], -0.281 z-score; in assay [3] it was 0.561 z-score.

Consider TGAAACAGAAAGTGAAACCA, for which the binding signal in assay [1] was 0.0976 z-score; in assay [2], 0.359 z-score; in assay [3] it was 79.5 z-score.

For GAAAAGAGGAAGAGAAACTG, the binding signal is 5.45 z-score in assay [1], 2.25 z-score in assay [2] and 17.6 z-score in assay [3].

As to CTGGCAGGAAACTGAAACTC, the binding signal in assay [1] came out at 0.581 z-score; in assay [2], 2.88 z-score; in assay [3] it was 15 z-score.

As for TGACAGAGGAAGTGAAACTA, the binding signal stood at 3.77 z-score in assay [1], 3.41 z-score in assay [2] and 63.7 z-score in assay [3].

Regarding TGAATCAGGAAGTGAAACCA, the binding signal in assay [1] was 4.41 z-score; in assay [2], 4.15 z-score; in assay [3] it was 65.4 z-score.

For the sequence TTTTTAGAGAAGTGAAACTA, the binding signal in assay [1] is 3.24 z-score; in assay [2] it was 2.93 z-score; in assay [3] it was 60.3 z-score.

On to GATAAGAGGAACTGAATGCT, for which the figures for the binding signal in assay [1], in assay [2] and in assay [3] were 4.31 z-score, 1.56 z-score and 1.27 z-score, respectively.

As for CTAGCAGGGAACTGAAACTC, the binding signal in assay [1] came to 0.688 z-score; in assay [2] it was 0.00942 z-score; in assay [3] it was 11.4 z-score.

As to TGGCAGAGGCAGTGAAACTA, the binding signal in assay [1] is -0.453 z-score; in assay [2] it was -0.372 z-score; in assay [3], 12.2 z-score.

On to CTGGCAGCGAACTGAAACTC, for which the binding signal in assay [1] was -0.48 z-score; in assay [2], -0.624 z-score; in assay [3] it was 7.93 z-score.

In the case of TGGCAGAGGAAGTGAAACCA, the results for the binding signal in assay [1], in assay [2] and in assay [3] were 3.52 z-score, 3.74 z-score and 49.6 z-score, respectively.

CTGGCAGGGAACTGAAACCC: the binding signal came to 0.713 z-score in assay [1], 0.209 z-score in assay [2] and 4.26 z-score in assay [3].

Consider TGAGAGGCGAAGTGAAACCT, for which the binding signal was -0.495 z-score in assay [1], -0.311 z-score in assay [2] and 17.3 z-score in assay [3].

On to TGAGAGGAGAAGAGAAACCT, for which the binding signal in assay [1] is -0.343 z-score; in assay [2], -0.544 z-score; in assay [3], -0.468 z-score.

For TGCCGGAGGAAGTGAAACTC, the results for the binding signal in assay [1], in assay [2] and in assay [3] were 2.26 z-score, 2.81 z-score and 41.6 z-score, respectively.

Regarding ACAAACGGGAAGTGAAAGCT, the binding signal in assay [1] came out at 5.29 z-score; in assay [2], 3.01 z-score; in assay [3] it was 17.6 z-score.

On to AAAAAGAAGAAGTGAAACTT, for which the binding signal is 4.4 z-score in assay [1], 2.15 z-score in assay [2] and 51.6 z-score in assay [3].

As for TGGCAGAGGAAGTGAAACTC, the binding signal in assay [1] stood at 3.59 z-score; in assay [2], 3.55 z-score; in assay [3], 38.2 z-score.

Take TAAAGGAGGAACTGAAACCC: the binding signal in assay [1] was found to be 3.74 z-score; in assay [2] it was 1.96 z-score; in assay [3] it was 21.9 z-score.

As for CTGGCTGGGAACTGAAACTC, the binding signal is 0.155 z-score in assay [1], -0.385 z-score in assay [2] and 8.52 z-score in assay [3].

CTTGCAGGGAACTGAAACTC: the binding signal in assay [1] came out at 0.819 z-score; in assay [2], 0.637 z-score; in assay [3], 13 z-score.

Take CAGAAAGGGAAGTGAAACTG: the figures for the binding signal in assay [1], in assay [2] and in assay [3] were 4.81 z-score, 3.32 z-score and 73.5 z-score, respectively.

Take CCGGCAGGGAACTGAAACTC: the binding signal in assay [1] was 0.959 z-score; in assay [2], 0.221 z-score; in assay [3], 10.3 z-score.

Take AGGGAGAGGAAGTGAAACTA: the values for the binding signal in assay [1], in assay [2] and in assay [3] were 4.01 z-score, 3.67 z-score and 65.4 z-score, respectively.

Regarding GATAAGAAGAACTGAAAGCT, the binding signal in assay [1] amounted to 0.31 z-score; in assay [2], 0.0726 z-score; in assay [3], 0.474 z-score.

For the sequence TGAGAGGAGAACTGAAACCT, the binding signal in assay [1] is 0.785 z-score; in assay [2], -0.0605 z-score; in assay [3], 9.34 z-score.

In the case of CGAAAAGGGAAATGAAACCA, the binding signal in assay [1] amounted to 2.9 z-score; in assay [2] it was 2.34 z-score; in assay [3] it was 38.1 z-score.

Take TGAGAGGAGAAGTGAAACCA: the binding signal was found to be 1.19 z-score in assay [1], 0.47 z-score in assay [2] and 39.5 z-score in assay [3].

Turning to AGAAAGAGGAACTGAAACTG, the binding signal came to 6.71 z-score in assay [1], 3.41 z-score in assay [2] and 63 z-score in assay [3].

With TGAGACGAGAAGTGAAACCT, the figures for the binding signal in assay [1], in assay [2] and in assay [3] were 0.816 z-score, 0.0159 z-score and 19.9 z-score, respectively.

Turning to TGTCAGAGGAAGTGAAACTA, the results for the binding signal in assay [1], in assay [2] and in assay [3] were 2.98 z-score, 3.1 z-score and 66.1 z-score, respectively.

Regarding AGAAAGGGGAACAGAAACTG, the figures for the binding signal in assay [1], in assay [2] and in assay [3] were 3.94 z-score, 1.87 z-score and 29.6 z-score, respectively.

Consider GATAAGAGGAACGGAAAGCT, for which the values for the binding signal in assay [1], in assay [2] and in assay [3] were 1.18 z-score, 1.5 z-score and 0.187 z-score, respectively.

Turning to AAAGAGAGGAAGTGAAACTC, the binding signal in assay [1] was 4.75 z-score; in assay [2], 3.71 z-score; in assay [3], 50.6 z-score.

With GTTTTGAGGAACTGAAACTT, the binding signal in assay [1] was 4.72 z-score; in assay [2], 3.1 z-score; in assay [3], 41.2 z-score.

Take TTAAACAGGAAGTGAAACCA: the binding signal was found to be 5.61 z-score in assay [1], 5.92 z-score in assay [2] and 75.2 z-score in assay [3].

Turning to CAAATGTGGAAGTGAAACTC, the binding signal in assay [1] is 4.71 z-score; in assay [2], 3.13 z-score; in assay [3], 50.1 z-score.
